# Experimental data taken from PubChem BioAssay AID1476 (National Center for Advancing Translational Sciences (NCATS), 2009).
# In all, about 200,000 compounds went through this assay and about 4,500 (2.2%) were called active. Inconclusive results, whose numbers are uncertain, are shown with a selection of clear calls. Calls come from the whole dose curve; as a rule, active = well fitted inhibition curve with a large enough effect; inconclusive = small, poorly fitted or top-dose-only effect, or effect the other way; inactive = flat fitted curve, though single readings scatter. Where the call is inconclusive, the potency comes from a doubtful curve fit.
# Molecular target: Cruzipain (Trypanosoma cruzi) (UniProt P25779)
# Assay: qHTS Assay for Promiscuous and Specific Inhibitors of Cruzain (without detergent); note: nearly all actives have a fitted effect of over 40% in size;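 for max response, negative = inhibition: plate controls were enzyme without inhibitor for no effect and buffer without enzyme for full effect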
# Details: purified cruzain, Z-FR-AMC fluorescence, no detergent
# How it was run: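 Detergent-free condition (0.00005% Triton X-100) in acetate buffer pH 5.5 with DTT. 1.5 nM enzyme and compound were pre-mixed 15 min, then 2 uM Z-FR-AMC substrate added; reaction progress from fluorescence change between first and third reads (60 s).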
# Potency is the fitted concentration of half-maximal effect; tags give direction and shape of the fitted curve.
# UniProt P25779, sequence (P25779 whole entry, looked up): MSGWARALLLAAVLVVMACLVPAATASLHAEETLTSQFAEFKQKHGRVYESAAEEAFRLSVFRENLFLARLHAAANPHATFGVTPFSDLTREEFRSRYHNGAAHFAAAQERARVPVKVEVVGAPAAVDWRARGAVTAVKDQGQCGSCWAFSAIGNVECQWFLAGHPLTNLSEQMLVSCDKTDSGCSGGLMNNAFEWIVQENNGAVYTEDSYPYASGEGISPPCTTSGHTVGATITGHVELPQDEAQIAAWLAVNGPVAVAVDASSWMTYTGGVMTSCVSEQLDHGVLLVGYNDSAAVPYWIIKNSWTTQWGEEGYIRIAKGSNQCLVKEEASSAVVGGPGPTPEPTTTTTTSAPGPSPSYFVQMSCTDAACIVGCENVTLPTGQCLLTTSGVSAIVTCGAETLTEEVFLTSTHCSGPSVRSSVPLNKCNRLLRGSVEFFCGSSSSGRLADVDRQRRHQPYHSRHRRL
SMILES,"max response, negative = inhibition",Potency
COc1cc(NC(=O)CN2C(=O)CN(C)C(=O)c3ccccc32)cc(OC)c1OC,inactive: -7.38%,–
CNC(=O)C1CCC(Cn2c(=O)c3sccc3n(CC(=O)Nc3ccc(C)c(F)c3)c2=O)CC1 (stereo not drawn),–,"inconclusive: 25.1 µM [activator, single point]"
CN1c2ccccc2C(C)(C)C12CC(c1ccc(S(=O)(=O)N3CCCCC3)cc1)=NO2 (stereo not drawn),–,"inconclusive: 39.8 µM [inhibitor, single point]"
Cc1nn(Cc2ccc(Cl)cc2)c(C)c1NC(=O)c1noc2c1CCCCC2,–,"inconclusive: 20 µM [activator, single point]"
Cc1ccc(Cl)cc1N1CCN(C(=O)c2cc3c(=O)[nH]c4ccccc4c3n2C)CC1,–,"inconclusive: 31.6 µM [inhibitor, single point]"
CN(Cc1ccccc1)Cc1nc2c(c(=O)n(C)c(=O)n2C)n1CCCc1ccccc1,–,"inconclusive: 39.8 µM [activator, single point]"
Cc1ccccc1NC(=O)Cc1nnc(SCC(=O)c2ccc(Br)cc2)n1C,inactive: -7.17%,–
Cc1ccc(S(=O)(=O)N2CCC(=O)N(C(COCc3cccc(C(F)(F)F)c3)C(C)C)CC2)cc1 (stereo not drawn),–,"inconclusive: 12.6 µM [activator, partial curve]"
CNC(=O)COc1ccc(NC(=O)CCn2nc(-c3ccc(C)cc3)c3ccccc3c2=O)cc1,inactive: 23.7%,–
O=C(COc1ccc(Cl)cc1)Nc1cc(S(=O)(=O)N2CCCCC2)ccc1N1CCCCC1,–,active: 15.8 µM
COc1ccc2oc(C(=O)OCC(=O)c3ccc4c(c3)OCCO4)c(C)c2c1,–,"inconclusive: 31.6 µM [inhibitor, single point]"
Cc1cccc(N=C2NC(=O)/C(=C/c3cn(C)c4ccccc34)S2)c1,–,active: 31.6 µM
COc1ccc(-n2nc(C(=O)N3CCN(c4cccc(C)c4C)CC3)c3c4ccccc4n(C)c3c2=O)cc1,inactive: -8.21%,–
COc1cccc(C(c2c(C)[nH]n(-c3ccccc3)c2=O)c2c(C)[nH]n(-c3ccccc3)c2=O)c1OC,–,"inconclusive: 25.1 µM [activator, partial curve]"
O=C(Cn1c2c(sc1=O)C1c3ccccc3OCC1CS2)Nc1ccc(Cl)c(Cl)c1 (stereo not drawn),–,active: 6.31 µM
c1cncc(CSc2ncnc3nc[nH]c23)c1,inactive: -2.37%,–
COc1ccc(C2C(C#N)=C(N)OC3=C2C(=O)CCC3)cc1Cn1cc([N+](=O)[O-])cn1 (stereo not drawn),inactive: -7.37%,–
COc1cc(OC)c(NS(=O)(=O)c2cc(-c3cnc(C)o3)ccc2OC)cc1Cl,–,"inconclusive: 39.8 µM [activator, single point]"
